{"source": "paper PMC4336329", "about": "(PLoS ONE, 2015)", "note": "Hit rate of the full screen: of about 310,000 compounds, about 2,200 (0.71%) showed an effect of 50% or more. The effect is printed as a negative number. The list shows a part of the results."}
{"biological_target": "human ether-à-go-go-related gene (hERG) potassium channel (human, UniProt Q12809)", "sequence (Q12809 whole entry, looked up)": "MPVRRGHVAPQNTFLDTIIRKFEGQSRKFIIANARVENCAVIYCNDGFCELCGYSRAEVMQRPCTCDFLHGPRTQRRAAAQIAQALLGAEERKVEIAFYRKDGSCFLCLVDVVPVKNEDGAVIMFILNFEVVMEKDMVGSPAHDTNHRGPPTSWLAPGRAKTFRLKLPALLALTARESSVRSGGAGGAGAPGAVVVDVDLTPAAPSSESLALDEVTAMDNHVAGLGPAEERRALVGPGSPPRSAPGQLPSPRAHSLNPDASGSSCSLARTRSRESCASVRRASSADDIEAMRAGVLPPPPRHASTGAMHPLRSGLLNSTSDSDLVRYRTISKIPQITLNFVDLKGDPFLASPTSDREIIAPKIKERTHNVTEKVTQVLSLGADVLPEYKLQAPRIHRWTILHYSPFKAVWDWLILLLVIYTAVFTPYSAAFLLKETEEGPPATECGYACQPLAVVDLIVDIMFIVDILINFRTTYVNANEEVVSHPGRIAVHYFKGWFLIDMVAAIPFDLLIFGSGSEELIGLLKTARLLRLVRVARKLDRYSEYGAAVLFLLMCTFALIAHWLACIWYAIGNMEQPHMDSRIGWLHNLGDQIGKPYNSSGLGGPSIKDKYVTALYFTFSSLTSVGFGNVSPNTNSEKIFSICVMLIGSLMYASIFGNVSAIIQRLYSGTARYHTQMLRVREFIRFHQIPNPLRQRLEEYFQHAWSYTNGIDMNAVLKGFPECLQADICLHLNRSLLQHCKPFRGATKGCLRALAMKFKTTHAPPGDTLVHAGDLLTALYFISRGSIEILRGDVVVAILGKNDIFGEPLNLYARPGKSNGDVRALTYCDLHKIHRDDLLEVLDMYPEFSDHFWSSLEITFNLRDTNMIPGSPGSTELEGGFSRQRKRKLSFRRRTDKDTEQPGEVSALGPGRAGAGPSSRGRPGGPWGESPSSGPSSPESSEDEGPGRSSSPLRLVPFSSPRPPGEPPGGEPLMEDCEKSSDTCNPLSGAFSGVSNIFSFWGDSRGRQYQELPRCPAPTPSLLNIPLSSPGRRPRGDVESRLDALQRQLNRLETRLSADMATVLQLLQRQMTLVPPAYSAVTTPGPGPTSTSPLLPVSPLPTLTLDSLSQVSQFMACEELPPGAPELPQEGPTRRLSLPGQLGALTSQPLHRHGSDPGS", "assay": "primary screen, population patch clamp on CHO cells stably expressing hERG", "units": {"hERG current change (%, negative = inhibition) at 1uM": "%"}}
{"smiles": "CCOC(=O)C1=C(COC(=O)c2ccc(Cl)cc2[N+](=O)[O-])NC(=O)NC1C", "note": "(stereo not drawn)", "hERG current change (%, negative = inhibition) at 1uM": 9.96}
{"smiles": "Cc1ccccc1OCCC(=O)N1CCN(S(=O)(=O)c2ccccc2F)CC1", "hERG current change (%, negative = inhibition) at 1uM": 12.5}
{"smiles": "Cc1cc(C(=O)CN2CCC(C)CC2)c(C)n1-c1ccccc1F", "hERG current change (%, negative = inhibition) at 1uM": 21.2}
{"smiles": "Cc1ncc(CSc2nc3ccccc3[nH]2)c(N)n1", "hERG current change (%, negative = inhibition) at 1uM": -12.8}
{"smiles": "CCCCCC1CC(CC(=O)O)C(=O)O1", "note": "(stereo not drawn)", "hERG current change (%, negative = inhibition) at 1uM": 2.44}
{"smiles": "CCCOc1ccc(C(=O)NC(=S)NCc2cccnc2)cc1", "hERG current change (%, negative = inhibition) at 1uM": 7.19}
{"smiles": "Cc1nnc(SCc2ccc(C(=O)Nc3cc(Cl)ccc3C)cc2)s1", "hERG current change (%, negative = inhibition) at 1uM": 7.6}
{"smiles": "CCOC(=O)C(=O)N/N=C/c1cccc(Br)c1", "hERG current change (%, negative = inhibition) at 1uM": 11.2}
{"smiles": "COc1cc(C(=O)N(Cc2ccccn2)CC2CCCO2)cc(OC)c1OC.Cl", "note": "(stereo not drawn)", "hERG current change (%, negative = inhibition) at 1uM": 1.8}
{"smiles": "Cc1ccc(C(=O)OCC(=O)N2CCc3ccccc32)cc1", "hERG current change (%, negative = inhibition) at 1uM": 15}
{"smiles": "CCCc1nnc(SCC(=O)N2CCCC(C)C2)n1CC1CCCO1", "note": "(stereo not drawn)", "hERG current change (%, negative = inhibition) at 1uM": 13.7}
{"smiles": "Cc1cccc(NP(=O)(Oc2ccccc2)Oc2ccccc2)c1C", "hERG current change (%, negative = inhibition) at 1uM": 8.04}
{"smiles": "Cc1nc(NC(=O)c2cc3c(C)nn(-c4ccccc4)c3s2)sc1C(=O)Nc1ccccc1", "hERG current change (%, negative = inhibition) at 1uM": 10.3}
{"smiles": "CCN(CC)C1=N/C(=C\\c2ccco2)C(=O)N1c1ccccc1", "hERG current change (%, negative = inhibition) at 1uM": 4.65}
{"smiles": "CCOC(=O)c1cc(C(C)=O)c(=O)n(C)c1N", "hERG current change (%, negative = inhibition) at 1uM": 16.6}
{"smiles": "Cc1cc(NC(=O)/C(C#N)=C/c2ccc(-c3cccc(C(F)(F)F)c3)o2)n(-c2ccccc2)n1", "hERG current change (%, negative = inhibition) at 1uM": -2.89}
{"smiles": "CC(OC(=O)CC1CCCCC1)C(=O)Nc1cccc(C#N)c1", "note": "(stereo not drawn)", "hERG current change (%, negative = inhibition) at 1uM": 6.92}
{"smiles": "CCc1noc(C)c1C(=O)Nc1nc(-c2ccc(Cl)cc2Cl)cs1", "hERG current change (%, negative = inhibition) at 1uM": 5.95}
{"smiles": "Cc1ccc(-n2c(O)c(C=N)c(=O)n(-c3ccc(C)cc3)c2=O)cc1", "hERG current change (%, negative = inhibition) at 1uM": -2.88}
{"smiles": "c1csc(C2CCCN2c2nc3nonc3nc2NC2CC2)n1", "note": "(stereo not drawn)", "hERG current change (%, negative = inhibition) at 1uM": 8.42}
{"smiles": "NS(=O)(=O)c1ccc(CNC(=O)NC23CC4CC(CC(C4)C2)C3)cc1", "hERG current change (%, negative = inhibition) at 1uM": -4.47}
{"smiles": "COc1cccc(Oc2cc(Cl)nc(N)n2)c1", "hERG current change (%, negative = inhibition) at 1uM": 7.9}
{"smiles": "COCCCN1C(=O)CS/C1=N\\S(=O)(=O)c1ccccc1", "hERG current change (%, negative = inhibition) at 1uM": 7.54}
{"smiles": "CCn1ncc(/C=C2/SC(=S)NC2=O)c1C", "hERG current change (%, negative = inhibition) at 1uM": 13.9}
{"smiles": "CN1C(=O)C(=Cc2ccccc2Oc2ccc(Cl)cc2)C(=O)N(C)C1=O", "hERG current change (%, negative = inhibition) at 1uM": 8.1}
{"smiles": "CSc1ccc(S(=O)(=O)N2c3ccccc3CC2C)cc1", "note": "(stereo not drawn)", "hERG current change (%, negative = inhibition) at 1uM": 8.27}
{"smiles": "CCSC1(SCC)N=C(N)C2(C#N)C(c3ccc(OC)c(OC)c3OC)C12C#N", "note": "(stereo not drawn)", "hERG current change (%, negative = inhibition) at 1uM": -2.36}
{"smiles": "CCN(CC)CCNC(=O)c1ccc2c(c1)ncn2C1CCCCC1", "hERG current change (%, negative = inhibition) at 1uM": 8.87}
{"smiles": "CCn1c(SCC(=O)Nc2ccc(N3CCOCC3)c(Cl)c2)nnc1-c1ccc(N)cc1", "hERG current change (%, negative = inhibition) at 1uM": 12.3}
{"smiles": "CC1Cc2ccccc2N1CC(=O)Nc1ccc(N2CCOCC2)cc1", "note": "(stereo not drawn)", "hERG current change (%, negative = inhibition) at 1uM": -7.17}
{"smiles": "Cc1ccc(OCC(=O)Nc2cc(S(=O)(=O)N3CCOCC3)ccc2Cl)c([N+](=O)[O-])n1", "hERG current change (%, negative = inhibition) at 1uM": 3.61}
{"smiles": "COc1cc(NC(=O)Nc2ccccc2)c(OC)cc1NC(=O)CN1CCCCC1", "hERG current change (%, negative = inhibition) at 1uM": -13.9}
{"smiles": "c1ccc(-c2nnc3sc(Cc4cccs4)nn23)cc1", "hERG current change (%, negative = inhibition) at 1uM": 7.81}
{"smiles": "CCCCN(CCCC)S(=O)(=O)c1ccc(SCC(=O)OCC)c([N+](=O)[O-])c1", "hERG current change (%, negative = inhibition) at 1uM": 11.7}
{"smiles": "Cc1ccc(C(=O)C2CCN(S(=O)(=O)c3c(C)noc3C)CC2)cc1", "hERG current change (%, negative = inhibition) at 1uM": 1.23}
{"smiles": "CC(=O)c1c(C)c[nH]c1C", "hERG current change (%, negative = inhibition) at 1uM": 14.9}
{"smiles": "O=C(COc1ccc(F)cc1Cl)Nc1cc(S(=O)(=O)N2CCOCC2)ccc1N1CCCCC1", "hERG current change (%, negative = inhibition) at 1uM": -1.68}
{"smiles": "COC(=O)Cc1cc(=O)n(-c2ccccc2)[nH]1", "hERG current change (%, negative = inhibition) at 1uM": 3.67}
{"smiles": "COc1ccccc1CN1CCNC(=O)C1CC(=O)O", "note": "(stereo not drawn)", "hERG current change (%, negative = inhibition) at 1uM": 9.48}
{"smiles": "CCCCOc1ccc(S(=O)(=O)NNC(=O)C2Cc3c(ccc4ccccc34)O2)cc1", "note": "(stereo not drawn)", "hERG current change (%, negative = inhibition) at 1uM": 17}
{"smiles": "CCOc1ccc(OCCn2nnc3ccccc3c2=O)cc1", "hERG current change (%, negative = inhibition) at 1uM": 2.8}
{"smiles": "CCOc1ccc(C(=O)OCC(=O)Nc2ccc(SC(F)F)cc2)cc1OCC", "hERG current change (%, negative = inhibition) at 1uM": -8.45}
{"smiles": "CCn1c(=N)n(CCO)c2ccccc21.Cl", "hERG current change (%, negative = inhibition) at 1uM": 8.18}
{"smiles": "CCc1nc2ccc(C(=O)N(C)CC(=O)Nc3cccc(F)c3)cc2nc1CC", "hERG current change (%, negative = inhibition) at 1uM": 1.52}
{"smiles": "Cc1ccc(-c2nnn(CC(=O)NCC3CC3)n2)o1", "hERG current change (%, negative = inhibition) at 1uM": 13.2}
